# Data published in patent US10376524B2, “Use of GABAA receptor antagonists for the treatment of excessive sleepiness and disorders associated with excessive sleepiness” (EMORY UNIVERSITY, priority 2008, dated 2019).
# How the values were obtained:
# [1] = test system: Patient AS99 (idiopathic hypersomnia); assay: Clinical course of patient AS99
# GABAA receptors = GABAA receptors (Homo sapiens, UniProt P14867+P18507+P47870); assay: Activity of adenosine in artificial CSF at GABAA receptors; type: cell-based; details: 1 mM, 100 μM and 10 μM adenosine in artificial CSF
# [2] = test system: Patient AS99 (idiopathic hypersomnia); assay: Functional Outcomes of Sleep, patient AS99 on sublingual flumazenil; details: for Functional Outcomes of Sleep: Activity: pre-treatment 3.6; for Functional Outcomes of Sleep: General Productivity: pre-treatment 6; for Functional Outcomes of Sleep: Total Mean: pre-treatment 7.4; for Functional Outcomes of Sleep: Vigilance: pre-treatment 8; for Functional Outcomes of Sleep: Social Activity: pre-treatment 12; for Functional Outcomes of Sleep: Total: pre-treatment 29.5
# [3] = test system: Patient AS99 (idiopathic hypersomnia); assay: Rest-activity cycle (actigraphy) of patient AS99; type: in vivo, human; details: chronic sublingual administration, FIGS. 18a, 18b
# [4] = test system: Patient AS99 (idiopathic hypersomnia); assay: SF-36 Health Survey, patient AS99 on sublingual flumazenil; details: for SF-36 Health Survey: Physical: pre-treatment 39.5; for SF-36 Health Survey: Mental: pre-treatment 49.7
# [5] = test system: Patient AS99 (idiopathic hypersomnia); assay: Beck Depression Inventory, patient AS99 on sublingual flumazenil; details: pre-treatment 7
# [6] = test system: Patient AS99 (idiopathic hypersomnia); assay: Epworth Sleepiness Scale, patient AS99 on sublingual flumazenil; details: pre-treatment 18
smiles,measurement,setting,value
NC(=O)C[S+]([O-])C(c1ccccc1)c1ccccc1 (centres unmarked) [modafinil],hypersomnia under treatment,"[1]; patient AS99, maximum doses of dextroamphetamine (60 mg) in combination with modafinil (800 mg)",hypersomnia persisted
Nc1ncnc2c1ncn2[C@@H]1O[C@H](CO)[C@@H](O)[C@H]1O [adenosine],activity at GABAA receptors,GABAA receptors,no activity
CCOC(=O)c1ncn2c1CN(C)C(=O)c1cc(F)ccc1-2 [flumazenil],Functional Outcomes of Sleep: Activity,[2]; 1 month post,19.6
same,Functional Outcomes of Sleep: General Productivity,[2]; 1 month post,23
same,Functional Outcomes of Sleep: Total Mean,[2]; 1 month post,22.1
same,Functional Outcomes of Sleep: Vigilance,[2]; 1 month post,22
same,Functional Outcomes of Sleep: Social Activity,[2]; 1 month post,24
same,Functional Outcomes of Sleep: Total,[2]; 1 month post,88.6
same,Functional Outcomes of Sleep: Activity,[2]; 2 months post,21.3
same,Functional Outcomes of Sleep: General Productivity,[2]; 2 months post,24
same,Functional Outcomes of Sleep: Total Mean,[2]; 2 months post,23.3
same,Functional Outcomes of Sleep: Vigilance,[2]; 2 months post,24
same,Functional Outcomes of Sleep: Social Activity,[2]; 2 months post,24
same,Functional Outcomes of Sleep: Total,[2]; 2 months post,93.3
same,outcome of continued use,"[1]; patient AS99, sublingual flumazenil for 9 months",positive results
same,"sleep, mood, sleepiness, and quality of life","[1]; patient AS99, sublingual flumazenil, sustainable",improved dramatically
same,rest-activity cycles,[3],improved
same,SF-36 Health Survey: Physical,[4]; 1 month post,54.4
same,SF-36 Health Survey: Mental,[4]; 1 month post,64.0
same,SF-36 Health Survey: Physical,[4]; 2 months post,66.2
same,SF-36 Health Survey: Mental,[4]; 2 months post,56.2
same,Beck Depression Inventory,[5]; 1 month post,2
same,Beck Depression Inventory,[5]; 2 months post,2
same,Epworth Sleepiness Scale,[6]; 1 month post,3
same,Epworth Sleepiness Scale,[6]; 2 months post,3
CC[C@H]1OC(=O)[C@H](C)[C@@H](O[C@H]2C[C@@](C)(OC)[C@@H](O)[C@H](C)O2)[C@H](C)[C@@H](O[C@@H]2O[C@H](C)C[C@H](N(C)C)[C@H]2O)[C@](C)(OC)C[C@@H](C)C(=O)[C@H](C)[C@@H](O)[C@]1(C)O [clarithromycin],"insomnia, reversed promptly upon discontinuation","[1]; patient AS99 on sublingual flumazenil, when prescribed clarithromycin",4 nights
